Experimental data from paper PMC4336329 (PLoS ONE, 2015).
The campaign covered roughly 310,000 compounds. About 2,200 (0.71%) showed an effect of 50% or more. Effects have a minus sign here. The list shows a part of the results.

biological target: human ether-à-go-go-related gene (hERG) potassium channel (human, UniProt Q12809); experiment: primary screen, population patch clamp on CHO cells stably expressing hERG
Sequence (Q12809 whole entry, looked up): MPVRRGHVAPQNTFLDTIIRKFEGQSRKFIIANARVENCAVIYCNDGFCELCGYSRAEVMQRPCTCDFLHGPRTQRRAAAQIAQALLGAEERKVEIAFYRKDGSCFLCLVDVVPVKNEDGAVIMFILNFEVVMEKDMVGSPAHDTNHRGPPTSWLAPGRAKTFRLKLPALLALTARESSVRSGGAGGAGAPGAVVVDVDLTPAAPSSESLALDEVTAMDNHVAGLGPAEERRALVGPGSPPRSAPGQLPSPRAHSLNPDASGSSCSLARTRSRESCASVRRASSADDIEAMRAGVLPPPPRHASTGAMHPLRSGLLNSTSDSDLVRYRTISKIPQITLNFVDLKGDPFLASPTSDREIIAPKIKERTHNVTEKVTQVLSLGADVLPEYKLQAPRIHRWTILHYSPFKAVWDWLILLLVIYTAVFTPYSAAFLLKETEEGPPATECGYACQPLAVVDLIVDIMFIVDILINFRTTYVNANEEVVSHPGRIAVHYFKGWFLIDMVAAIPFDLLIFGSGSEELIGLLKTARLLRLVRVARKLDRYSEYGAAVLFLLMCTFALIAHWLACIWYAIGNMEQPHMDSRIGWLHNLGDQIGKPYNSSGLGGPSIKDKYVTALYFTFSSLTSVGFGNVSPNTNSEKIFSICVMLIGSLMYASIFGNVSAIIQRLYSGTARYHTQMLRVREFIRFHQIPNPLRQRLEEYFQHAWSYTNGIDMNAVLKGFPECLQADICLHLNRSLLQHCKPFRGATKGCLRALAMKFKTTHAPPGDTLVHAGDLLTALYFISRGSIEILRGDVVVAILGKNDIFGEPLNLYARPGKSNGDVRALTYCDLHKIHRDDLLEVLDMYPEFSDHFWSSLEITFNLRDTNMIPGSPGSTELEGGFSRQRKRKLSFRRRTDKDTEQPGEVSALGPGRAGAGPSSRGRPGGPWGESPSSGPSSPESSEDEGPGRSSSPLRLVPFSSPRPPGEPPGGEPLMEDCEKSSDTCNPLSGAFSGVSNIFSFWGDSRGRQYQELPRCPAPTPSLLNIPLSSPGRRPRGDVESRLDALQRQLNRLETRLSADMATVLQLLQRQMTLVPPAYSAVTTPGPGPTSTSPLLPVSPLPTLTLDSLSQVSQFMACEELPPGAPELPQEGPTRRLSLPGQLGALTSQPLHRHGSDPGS

Row | Compound | hERG current change (%, negative = inhibition) at 1uM
1 | CCN(CC(=O)Nc1cc(Cl)ccc1C)C(=O)Cc1ccsc1 | 9.51%
2 | COc1ccccc1NC(=O)NNC(=O)COc1ccc2ccccc2c1 | 13.8%
3 | O=C1CC2(CCN(S(=O)(=O)c3ccccc3F)CC2)Oc2ccccc21 | -5.89%
4 | Cc1ccc(-c2cc(C(=O)N/N=C/c3ccccc3)n[nH]2)o1 | -1.26%
5 | COc1ccccc1C(=O)Oc1ccc2ccc(=O)oc2c1 | 11.3%
6 | Clc1cccc(C2Nc3cccc4cccc(c34)N2)c1 | 12%
7 | CCOC(=O)c1cccnc1SC(CC)C(=O)NCc1ccco1 (stereo not shown) | -6.91%
8 | O=C(c1ccc(=O)[nH]c1)N1CCN(S(=O)(=O)c2ccc3ccccc3c2)CC1 | 6.52%
9 | CCCc1nc2ccccc2c(=O)n1CCc1ccccc1 | 15.6%
10 | Cl.Clc1ccc(CN2C3=NCCCN3c3ccccc32)cc1 | -54.3%
11 | COc1ccc(OCC(=O)N/N=C/c2ccsc2)cc1 | -0.486%
12 | Br.CCCc1nnc2n1N=C(c1ccc(OC)c(OC)c1)CS2 | 3.96%
13 | COc1ccc(C(=O)N2CCN(CCc3ccccc3)CC2)cc1[N+](=O)[O-] | -73.5%
14 | O=C(c1ccc(C(F)(F)F)cc1)C1CCCN(C(=O)CN2CCCC2=O)C1 (stereo not shown) | 10.2%
15 | COc1ccc(C2(C(=O)N3CCC(n4nc(-c5ccccc5)oc4=O)CC3)CC2)cc1 | 14.8%
16 | CCN1C(=O)CC(Sc2ccccc2C(=O)O)C1=O (stereo not shown) | -1.91%
17 | CCOC(=O)NC1(C(F)(F)F)NC(=O)N(C2CCCCC2)C1=O (stereo not shown) | 13.5%
18 | CCc1nc(OCCN(C)C)c2oc3ccccc3c2n1 | 8.48%
19 | Cc1ccc(S(=O)c2snnc2C)cc1 (stereo not shown) | 15.8%
20 | Cn1c(NCCCN2CCOCC2)nc2c1c(=O)n(Cc1ccc(Cl)cc1Cl)c(=O)n2C | -3.89%
21 | CN(C)Cc1ccc(O)c(CCc2ccccc2)n1.Cl | 3.18%
22 | Cc1ccc(S(=O)(=O)N(C)C)cc1-n1c(SCC(=O)Nc2ccc(F)c(F)c2F)nc2ccccc2c1=O | 15.2%
23 | NS(=O)(=O)c1ccc(-c2cccc(/C=C3\SC(=O)NC3=O)c2)cc1 | 6.21%

Row | Compound | hERG current change (%, negative = inhibition) at 1uM
24 | O=C(CSc1cc(Cl)ccc1Cl)Nc1ccc(N2CCOCC2)cc1 | -20%
25 | Cn1c2ccccc2c2cc(C(=O)N3CCOCC3)sc21 | 14.8%
26 | CNS(=O)(=O)c1ccc(NC(=O)Nc2cccc(F)c2)cc1 | 11.7%
27 | COc1cccc(C(=O)NNC(=O)C(=O)Nc2ccc(C)cc2)c1 | 10.6%
28 | CCC1=C(c2cc(OC)c(OC)c(OC)c2)C2(CCCC2)C(=O)O1 | 6.61%
29 | CC(=O)Nc1cccc(-c2nnc(-c3ccc(C)cc3)o2)c1 | 17.6%
30 | CC1(C)Cc2cccc(OCC(=O)N3CCN(S(=O)(=O)c4ccccc4F)CC3)c2O1 | 1.82%
31 | COc1ccc(NS(=O)(=O)c2cc(NC(=O)CCNC(C)=O)ccc2N2CCCCC2)cc1 | -5.15%
32 | Cc1cccc(CSc2nc(N)c(C#N)c(-c3cccs3)c2C#N)c1 | -13.3%
33 | Cc1ccc(O)c(-c2cc(C(=O)NCc3ccc4c(c3)OCO4)[nH]n2)c1 | 7.09%
34 | Cn1cccc1C(=O)NC(=O)CSc1cccc[n+]1[O-] | 10.2%
35 | Cc1cc(OCC(=O)O/N=C(\N)Cc2cccs2)ccc1Br | 14.9%
36 | O=C(CN1CCN(Cc2cccc(Cl)c2)C1=O)NCc1cccs1 | 1.35%
37 | O=C(c1cccs1)N1CCN(C2CCN(Cc3ccccc3)CC2)CC1 | -27.3%
38 | COc1ccc(CC(=S)N2CCOCC2)cc1F | 0.485%
39 | Brc1ccc(-c2ccc(CNCc3ccccn3)o2)cc1.Cl | 12.3%
40 | COc1ccccc1C1CC(=O)NC(C)=C1C(=O)OC(C)C (stereo not shown) | 3.91%
41 | Cc1ccc(-c2cc(N)n(-c3ccc(F)cc3)n2)cc1 | 4.15%
42 | CCOc1nc(-c2ccc(C)cc2)ccc1-c1noc(COC)n1 | 9.68%
43 | Cc1ccc(CN(CC(=O)NC2CCCC2)C(=O)c2csnn2)cc1 | 11.9%
44 | CC1CC(C)(C)N2C(=O)C3(Nc4ccccc4S3)c3cccc1c32 (stereo not shown) | 21.5%
45 | O=C(Nc1ccc(Cl)cc1)c1ccc2ncsc2c1 | 13.2%
46 | COc1ccc(CCN(C(=O)/C=C/C(=O)O)C2CC(=O)N(c3ccccc3)C2=O)cc1 (stereo not shown) | 8.45%

Row | Compound | hERG current change (%, negative = inhibition) at 1uM
47 | CCOc1ccc(C(C)=O)cc1COc1ccc(C)nc1[N+](=O)[O-] | 10.6%
48 | CC(C)(C)OC(=O)N1CC2Cc3[nH]c(=O)ccc3C(C2)C1 (stereo not shown) | 7.84%
49 | CC(C)(C)NC(=O)NC(=O)COC(=O)C1CCN(S(=O)(=O)c2cccs2)CC1 | 8.63%
50 | CCOc1ccc(C(C)NC(=O)C2CCCC2)cc1 (stereo not shown) | 12.5%
51 | Cc1ccc2ccc(C3C(=O)c4ccccc4C3=O)nc2c1 | 15%
52 | CCCCn1c(C23CC4CC(CC(C4)C2)C3)n[nH]c1=S | 14.3%
53 | N#CC1=C2N=C(N)c3ccccc3N2C2=C(C(=O)CCC2)C1c1ccc(Cl)cc1 (stereo not shown) | 1.04%
54 | COC(=O)c1cccc(OCC(O)Cn2ccnc2)c1 (stereo not shown) | 0.869%
55 | NC(=O)C1CC=CCC1C(=O)OCC(Cl)=C(Cl)Cl (stereo not shown) | 25%
56 | Cc1cc(OCC(=O)NCc2cccnc2)c2c(C)c(Cc3ccccc3)c(=O)oc2c1 | -1.63%
57 | Cc1ccc(S(=O)(=O)N2CCCCC2)cc1NC(=O)c1ccc2c(=O)n3c(nc2c1)CCCCC3 | -14.6%
58 | C=CCn1c(SCc2cc(=O)n3ccsc3n2)nc2scc(C3CC3)c2c1=O | 4.18%
59 | COC(=O)CNC(=O)COC(=O)c1cc(Cl)cc(Cl)c1N | 5.66%
60 | CCn1c(CNC(=O)c2ccco2)nnc1SCC(=O)Nc1cccc(F)c1 | 0.364%
61 | CC(=O)c1c(C)nn(C(C)CC(=O)O)c1C (stereo not shown) | 3.06%
62 | COC(=O)c1c(NC(=O)c2ccco2)sc(C(=O)Nc2ccc(F)cc2)c1C | 7.56%
63 | CC(=O)Nc1ccc(C(=O)OCC(=O)N(C)C2CCCCC2)cc1 | 11.6%
64 | CCC(C)C1=CC(=Nc2c(C)n(C)n(-c3ccccc3)c2=O)C=C(C(C)CC)C1=O (stereo not shown) | 12.5%
65 | CC(C)N(Cc1ccccc1)C(=O)CSc1nccn1C | 11%
66 | CCCC(=O)N1c2ccccc2[C@@H](N(C(C)=O)c2ccccc2)C[C@H]1C | 8.99%
67 | O=C(CSc1n[nH]c(=O)[nH]c1=O)Nc1ccc(Br)cc1Br | 8.17%
68 | Cc1cc(C)c(C(=O)O)c(Cl)n1 | 8.85%
69 | O=C(CS(=O)(=O)Cc1ccccc1)Nc1nc2c(s1)CCCC2 | 3.41%

Row | Compound | hERG current change (%, negative = inhibition) at 1uM
70 | CC(/C=C1\SC(=S)N(NC(=O)c2ccc(O)cc2)C1=O)=C\c1ccccc1 | 0.121%
71 | COc1cccc2cc(C(=O)NCc3ccccc3Cl)c(=O)oc12 | 12.5%
72 | Cc1onc(-c2c(Cl)cccc2Cl)c1C(=O)Nc1ccc(N2CCOCC2)cc1 | 9.99%
73 | C/C(=N\NC(=O)c1cccs1)c1ccc(C(=O)O)s1 | 19.7%
74 | Nc1cccc(C(=O)Nc2ccco2)c1 | -3.67%
75 | CSc1nnnn1-c1c(C)cccc1C | 12.5%
76 | COc1cccc(C2C3=C(N=c4s/c(=C\c5cccc(O)c5)c(=O)n42)c2ccccc2CC3)c1OC (stereo not shown) | 17.2%
77 | Cn1ccc2ccc(C3=CC(=O)C[C@H](c4ccc(F)cc4)C3)cc21 | 4.22%
78 | COC(C[C@@H]1O[C@H]1C(=O)[C@@H](C)OCc1ccccc1)OC | 15.5%
79 | C=CCOC(=O)c1ccc(N2CCN(c3ccccc3)CC2)nc1 | 16.1%
80 | CCCC(=O)Nc1ccc(-c2cn3cccnc3n2)cc1 | 16.4%
81 | CC(=O)CCc1ccc(OCCCOc2cccc3cccnc23)cc1 | 9.3%
82 | CCOC(=O)C1=C(C)NC(=S)N(C=O)C1c1ccccc1 (stereo not shown) | 22.3%
83 | CCn1cc(C(=O)NCc2ccco2)c(=O)c2ccc(C)nc21 | 12.7%
84 | C=CCNC(=O)/C(C#N)=C/c1ccc(OS(=O)(=O)c2ccc(C)cc2)c(OC)c1 | 14.4%
85 | O=C(NCc1ccco1)/C(=C/c1cccnc1)NC(=O)c1cccc(Br)c1 | -13.2%
86 | CCC1CCCCN1CCCNC(=O)c1cc2c(Cl)nc3ccccc3c2s1 (stereo not shown) | -49.5%
87 | CC(=O)c1cccc(NC(=O)COc2ccc(S(=O)(=O)N3CCOCC3)cc2)c1 | 3.97%
88 | O=C(CC1C(=O)Nc2ccccc2N1CC(=O)N1CCCC1)Nc1ccc(Br)cc1 (stereo not shown) | 3.28%
89 | CC(C)c1nc(SCC(=O)N2CCCC2)c2c(=O)n(C)c(=O)n(C)c2n1 | 8.45%
90 | C=CCn1c(SCC(=O)N(C)C2CCS(=O)(=O)C2)nnc1-c1ccccc1 (stereo not shown) | 16.2%
91 | Cc1cccc(C)c1NC(=O)NCCSc1snnc1C | 18.8%
